Source: PubChem BioAssay AID1768 (National Center for Advancing Translational Sciences (NCATS), 2009)
Screen size: about 270,000 compounds; about 620 (0.23%) were called active. This list was built around the results that the source calls inconclusive (neither active nor inactive); the mix of calls is not that of the screen. Calls follow the shape of the dose curve; as a rule, active = well fitted inhibition curve with a large enough effect in the polarisation, with a control signal flat (not every such curve was filed as active); inconclusive = small, poorly fitted or top-dose-only effect, or effect the other way, or a change in a side signal; inactive = no such curve, though single readings can be large or run the other way; the % refers to the polarisation. Where the call is inconclusive, the potency comes from a doubtful curve fit. A note “side channel” means that the fit belongs to a control or component signal, not to the main read-out.

What follows are molecules tested against Menin (Homo sapiens) (UniProt O00255) (assay: qHTS Assay for Inhibitors Targeting the Menin-MLL Interaction in MLL Related Leukemias: Competition With Texas Red Labeled MLL-derived Mutant Peptide). Conditions: fluorescence polarization; FP activity change, negative = inhibition: at 61.6 µM (top of the series).
For FP activity change, negative = inhibition in this document: % of control where 0% means no effect.
Potency is read from the fitted curve at half-maximal effect; tags tell the direction and shape of the fitted curve or compound fluorescence and quenching.

Sequence of UniProt O00255 (O00255 whole entry, looked up): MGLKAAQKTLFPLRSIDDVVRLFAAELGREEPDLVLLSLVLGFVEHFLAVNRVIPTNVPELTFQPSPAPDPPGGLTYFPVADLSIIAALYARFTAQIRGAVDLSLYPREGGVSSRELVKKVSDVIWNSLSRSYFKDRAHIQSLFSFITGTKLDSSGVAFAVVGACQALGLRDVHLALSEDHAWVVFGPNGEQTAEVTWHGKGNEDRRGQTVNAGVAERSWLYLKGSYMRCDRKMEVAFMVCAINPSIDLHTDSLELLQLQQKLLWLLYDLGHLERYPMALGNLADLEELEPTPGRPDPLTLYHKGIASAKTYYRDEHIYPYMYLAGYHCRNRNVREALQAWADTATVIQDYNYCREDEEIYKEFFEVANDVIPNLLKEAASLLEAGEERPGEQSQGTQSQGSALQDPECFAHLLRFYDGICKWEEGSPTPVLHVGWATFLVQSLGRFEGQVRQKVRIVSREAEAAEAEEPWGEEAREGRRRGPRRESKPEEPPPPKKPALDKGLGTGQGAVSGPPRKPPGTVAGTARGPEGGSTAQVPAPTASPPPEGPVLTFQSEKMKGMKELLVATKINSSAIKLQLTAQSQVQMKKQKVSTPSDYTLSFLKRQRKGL

Potency, inconclusive:
CCCn1c(=O)c(C(=O)Nc2ccccc2C)c(O)c2ccccc21 14.1 µM [quencher, side channel, partial curve], CC(C)(C)C1=NN(C(=O)c2ccccc2)C(O)(C(C)(C)C)C1 (stereo not given) 28.2 µM [fluorescent, side channel, single point], CN(C)c1ccc(/C=C(\NC(=O)c2ccccc2)C(=O)NCc2cccnc2)cc1 35.5 µM [inhibitor, single point], Oc1ccccc1N=Cc1ccc[nH]1 17.8 µM [inhibitor, single point], CCOC(=O)C1(CCc2ccccc2)CCN(C(=O)CCc2cnccn2)CC1 17.8 µM [fluorescent, side channel, partial curve], O=[N+]([O-])c1ccc(C=Nc2cccc3ccccc23)s1 28.2 µM [quencher, side channel, partial curve], COc1ccc(CNC(=O)COc2ccc(Br)c(C)c2)cc1 39.8 µM [fluorescent, side channel, single point], O=S(=O)(N1CCCCC1)N1CCN(c2cc(Cl)ccc2Cl)CC1 7.94 µM [fluorescent, side channel, partial curve], Cc1ccc(NC(=O)c2cccs2)cc1[N+](=O)[O-] 17.8 µM [quencher, side channel, partial curve], O=C(Nc1ccccc1C(=O)Nc1ccccc1)c1ccccc1F 20 µM [inhibitor, single point], COc1ccc(-c2nc(SCC(=O)Nc3nccs3)c(-c3ccc(Cl)cc3)[nH]2)cc1 4.47 µM [quencher, side channel, full curve], CC[C@@H]1C(c2ccc(F)cc2)=NN(c2ccccc2)[C@H]1C(=O)N1CCOC1=O 8.91 µM [quencher, side channel, partial curve], COc1ccc(N=C2NN=C(c3ccc4c(c3)OCCO4)CS2)cc1 31.6 µM [quencher, side channel, single point], Fc1ccc(NC(=S)Nc2cccc(Cl)c2)cc1 39.8 µM [quencher, side channel, single point], CCOc1ccc(CCNC(=O)C2CCCN(S(=O)(=O)c3c(C)n[nH]c3C)C2)cc1OCC (stereo not given) 3.98 µM [inhibitor, single point], O=C(Cc1cccs1)N(Cc1cccs1)C1(C(=O)NC2CCCC2)CCCCC1 7.94 µM [fluorescent, side channel, partial curve], Cc1ccc(N(C(=O)Cn2nnc3ccccc32)C(C(=O)NCc2ccco2)c2ccc(C)o2)cc1 (stereo not given) 44.7 µM [fluorescent, side channel, partial curve], O=C(OCC(=O)N1CCN(C(=O)c2ccco2)CC1)c1cc(-c2ccco2)nc2ccccc12 28.2 µM [quencher, side channel, partial curve], Cc1ccsc1/C=N/NC(=O)c1nnn(-c2nonc2N)c1CSc1ccccc1 39.8 µM [fluorescent, single point], Cc1ccc(C)c(N(CC(=O)NC2CCCCC2)C(=O)c2csnn2)c1 28.2 µM [inhibitor, single point], COc1ccc(Nc2ccc([N+](=O)[O-])c3nonc23)c(OC)c1 15.8 µM [quencher, side channel, partial curve], Fc1ccc2[nH]c3c(NCc4ccccc4)ncnc3c2c1 17.8 µM [quencher, side channel, partial curve], Nc1ccc(S(=O)(=O)Nc2nccc(/C=C/c3ccc(Cl)cc3)n2)cc1 25.1 µM [inhibitor, single point], O=C(CCNS(=O)(=O)c1ccc(Br)cc1)NCc1ccc(Cl)cc1 39.8 µM [inhibitor, single point], Cc1ccc(/C=N/N2C(=S)SC(C)(C)C2N(O)C(=O)Nc2ccc([N+](=O)[O-])cc2)cc1 (stereo not given) 14.1 µM [quencher, side channel, partial curve], O=C(Nc1cccnc1Cl)c1cc(-c2cccc(O)c2)on1 28.2 µM [inhibitor, single point], Cc1ccc(NC(=O)CCCC(=O)OC(C)C(=O)c2ccccc2)cc1 (stereo not given) 6.31 µM [fluorescent, single point], O=C(Cn1nnc(-c2ccccc2)n1)N1CCCCC1 5.62 µM [inhibitor, full curve], COc1cc(/C=N\Nc2nc3ccccc3[nH]2)cc(OC)c1OC 28.2 µM [quencher, side channel, partial curve], N#CC1=C(N)NC(SCc2ccc(Br)cc2)=C(C#N)C12CCCCC2 12.6 µM [quencher, side channel, partial curve], COc1cc(NC(=S)NCCSc2ccc(C)cc2)cc(OC)c1 28.2 µM [quencher, side channel, single point], Cc1cc(/C=C2/C(=N)N3C(c4ccccc4)=CSC3=NC2=O)c(C)n1-c1ccccc1 7.94 µM [quencher, side channel, partial curve], COc1ccccc1/C=C/CN1CCCC(CCC(=O)NCc2ccc(F)c(F)c2)C1 (stereo not given) 35.5 µM [fluorescent, side channel, partial curve], CCOC(=O)c1sc(NC(=O)COC(=O)c2ccco2)nc1C 31.6 µM [quencher, side channel, single point], Cc1cccc(NS(=O)(=O)c2cc(NC(=O)CC(=O)c3ccc([N+](=O)[O-])cc3)ccc2C)c1 10 µM [quencher, side channel, partial curve], Cc1ccc(-c2cccc(C3CC=CC4C3C(=O)N(Cc3ccccc3)C4c3ccc(C(F)(F)F)cc3)c2)cc1 (stereo not given) 1.41 µM [fluorescent, side channel, full curve, poor fit], Cc1c(CC(=O)NCCC(C)C)c(=O)oc2cc3c(cc12)CCC(C)(C)O3 20 µM [fluorescent, partial curve, poor fit], CC(=O)Nc1ccc(NC(=O)c2cc(=O)c3ccccc3o2)cc1 35.5 µM [quencher, side channel, single point], CCOCCCNC(=O)C1CCCN(S(=O)(=O)c2cccc3nsnc23)C1 (stereo not given) 3.16 µM [inhibitor, partial curve], COc1ccccc1/C=C/c1nc2ccc(OC(C)=O)cc2c(=O)o1 39.8 µM [inhibitor, single point], O=c1[nH]n2c(=O)c3c([nH]c2c1N=Nc1cccc(Cl)c1)CCC3 14.1 µM [quencher, side channel, partial curve], Cc1ccc(-c2nc(-c3ccccn3)no2)cc1 28.2 µM [inhibitor, single point], CCc1nnc(NC(=O)CCN2C(=O)c3ccccc3C2=O)s1 3.16 µM [quencher, side channel, single point], CCOc1ccc(NC(=NCc2ccc3c(c2)OCO3)SC2CC(=O)N(c3ccc(C(=O)O)cc3)C2=O)cc1 (stereo not given) 1.78 µM [quencher, side channel, full curve], C/C(=N\Nc1cccc([N+](=O)[O-])c1)c1ccccc1O 14.1 µM [quencher, side channel, partial curve], CC1(C)Cc2c(ccc3ccccc23)/C(=C/C(=O)N2CCCCC2)N1 5.01 µM [fluorescent, side channel, partial curve], COc1ccccc1N1C(=O)c2ccc(C(=O)Nc3cccc(C(C)=O)c3)cc2C1=O 31.6 µM [quencher, side channel, single point], Cc1cc(C)cc(N=Cc2ccc([N+](=O)[O-])s2)c1 35.5 µM [quencher, side channel, single point], O=C(/C=C\c1ccco1)c1ccc(NC(=O)c2ccco2)cc1 25.1 µM [quencher, partial curve]

FP activity change, negative = inhibition, inactive:
CCOC(=O)N1CCN(C(=S)NC(=O)c2ccnn2C)CC1 -4.55%, NC(=O)c1ccsc1N 0.177%, CC1CCCN(C(=O)c2ccccc2OC2CCN(S(C)(=O)=O)CC2)C1 (stereo not given) -11.2%, NC(=O)COC(=O)CC(c1ccccc1)c1ccccc1 -10.7%, COc1cc(OC)c2c(C)cc(=O)oc2c1C(CCN1CCCCC1)c1ccc(N(C)C)cc1 (stereo not given) -13.6%, COCCCNCCCOc1ccc(C(C)(C)c2ccccc2)cc1 -19.3%, O=c1c(OC2OC(CO)C(O)C(O)C2O)c(-c2ccc(O)c(O)c2)oc2cc(O)cc(O)c12 (stereo not given) -0.0506%, COC(=O)NC1C=CCCC1C(C)=O (stereo not given) 1.92%, CN1/C(=C\C(=S)NC(=O)c2cccc(Br)c2)C(C)(C)c2ccccc21 2.59%, N#CC(Cc1ccc(O)c(O)c1)C(=O)N1CCc2ccccc21 (stereo not given) -2.05%, O=C(CSc1nnc(Cc2cccs2)n1-c1ccccc1)NCc1ccc2c(c1)OCO2 -4.73%
